Experimental data reported in publication PMC4336329 (PLoS ONE, 2015).
Out of some 310,000 compounds screened, about 14,000 (4.5%) showed an effect of 50% or more. The effect is printed as a negative number. The list shows a part of the results.

Molecular target: human ether-à-go-go-related gene (hERG) potassium channel (human, UniProt Q12809)
Assay: primary screen, population patch clamp on CHO cells stably expressing hERG
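Further: peak tail current of the secondary pulse compared with the same well before compound.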

Sequence of human ether-à-go-go-related gene (hERG) potassium channel (Q12809 whole entry, looked up): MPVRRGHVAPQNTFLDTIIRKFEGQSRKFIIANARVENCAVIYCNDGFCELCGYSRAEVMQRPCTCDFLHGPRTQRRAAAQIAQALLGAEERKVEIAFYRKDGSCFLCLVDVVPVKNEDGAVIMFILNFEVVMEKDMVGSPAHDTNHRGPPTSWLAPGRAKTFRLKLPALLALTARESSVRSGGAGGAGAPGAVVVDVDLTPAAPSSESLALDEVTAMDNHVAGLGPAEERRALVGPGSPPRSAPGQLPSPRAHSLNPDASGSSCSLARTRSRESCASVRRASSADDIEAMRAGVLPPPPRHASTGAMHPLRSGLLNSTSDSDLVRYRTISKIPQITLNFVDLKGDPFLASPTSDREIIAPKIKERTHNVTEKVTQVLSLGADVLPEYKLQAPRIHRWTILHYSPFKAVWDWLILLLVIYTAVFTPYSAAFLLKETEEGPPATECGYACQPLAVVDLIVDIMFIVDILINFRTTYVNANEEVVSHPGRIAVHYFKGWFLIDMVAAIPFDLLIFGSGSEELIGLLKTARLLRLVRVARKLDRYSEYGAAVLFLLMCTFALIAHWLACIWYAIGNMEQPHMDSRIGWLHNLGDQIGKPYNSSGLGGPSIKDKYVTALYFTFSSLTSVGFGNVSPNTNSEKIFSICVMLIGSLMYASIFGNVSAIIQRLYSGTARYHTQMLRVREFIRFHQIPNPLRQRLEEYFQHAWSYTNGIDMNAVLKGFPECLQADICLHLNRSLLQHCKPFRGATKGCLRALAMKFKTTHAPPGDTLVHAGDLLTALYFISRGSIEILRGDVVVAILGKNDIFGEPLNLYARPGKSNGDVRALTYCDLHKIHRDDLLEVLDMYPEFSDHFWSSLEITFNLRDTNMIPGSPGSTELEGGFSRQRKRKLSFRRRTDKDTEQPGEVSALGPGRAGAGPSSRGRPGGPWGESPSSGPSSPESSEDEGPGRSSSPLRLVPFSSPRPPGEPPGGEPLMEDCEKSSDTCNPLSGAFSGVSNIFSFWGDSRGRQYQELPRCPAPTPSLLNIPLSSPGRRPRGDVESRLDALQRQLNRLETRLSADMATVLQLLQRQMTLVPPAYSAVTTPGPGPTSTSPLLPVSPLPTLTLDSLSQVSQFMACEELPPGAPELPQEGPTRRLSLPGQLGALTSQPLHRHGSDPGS

Compared with `Cc1noc(C)c1CSCC(=O)N(CCC(C)C)c1c(N)n(Cc2ccccc2)c(=O)[nH]c1=O`, `CCOC(=O)Cc1cc(=O)n2[nH]c(C)c(-c3ccccc3)c2n1` is lower in “hERG current change (%, negative = inhibition) at 10uM” value: 21.4% for the first, -4.84% for the second.

Going from `Cn1c(SCc2ccccc2C#N)nc2ccccc2c1=O` to `CC1CN(c2oc(Cc3cccc4ccccc34)nc2C#N)CC(C)O1` (centres unmarked), the “hERG current change (%, negative = inhibition) at 10uM” value falls from 22.5% to -1.84%.

Going from `CC1CCCCC1NC(=O)c1cccc(S(=O)(=O)N2CCN(C)CC2)c1` (centres unmarked) to `Cc1ccc(S(=O)(=O)N2CCCC2)cc1C(=O)N1CCN(Cc2ccccc2)CC1`, the “hERG current change (%, negative = inhibition) at 10uM” value falls from -7.48% to -8.29%.

Compared with `Cc1ccc(CNc2ccc(S(=O)(=O)N3CCOCC3)cc2[N+](=O)[O-])cc1`, `COc1ccc(NC(=O)CN2CCN(S(=O)(=O)c3ccc(F)cc3)CC2)cc1Cl` is higher in “hERG current change (%, negative = inhibition) at 10uM” value: -20.4% for the first, -1.67% for the second.

Compared with `CSCC[C@H](NC(=O)[C@@H]1CSC2c3ccccc3C(=O)N21)C(=O)NC1CCCC1` (some centres unmarked), `O=C(CSCc1ccccc1Cl)NN=C1CCCCCC1` is lower in “hERG current change (%, negative = inhibition) at 10uM” value: 2.54% for the first, -17.8% for the second.

Compared with `CCOC(=O)Cn1nc(C)c(NC(=O)COc2cccc(Cl)c2)c1C`, `COC(=O)COc1ccc(NC(=O)c2ccco2)cc1` is lower in “hERG current change (%, negative = inhibition) at 10uM” value: 2.62% for the first, 0.568% for the second.

First: O=C(Cc1ccccc1)N/N=C/c1ccccc1Cl
Second: CN(C(=O)c1cccc(NC(=O)c2cccs2)c1)c1ccccc1
The “hERG current change (%, negative = inhibition) at 10uM” value of the first is higher: 2.14% for the first, -1.32% for the second.

First: CCCn1c(=S)[nH]c2cc(C(=O)N3CCc4ccccc4C3)ccc2c1=O
Second: CN(CC(=O)Nc1ccccc1Cl)CC(=O)Nc1sc2c(c1C(N)=O)CCC2
The “hERG current change (%, negative = inhibition) at 10uM” value of the first is higher: 11.6% for the first, -66.2% for the second.

Going from `CC[C@H](C)/C=C/C1=CC2=C(Cl)C(=O)[C@@]3(C)OC(=O)C(C(=O)[C@H](C)[C@@H](C)O)=C3C2=CO1` to `C=CCN(Cc1ccc(Cl)s1)C(=O)CNC(=O)CNC(=O)c1ccc(Cl)cc1Cl`, the “hERG current change (%, negative = inhibition) at 10uM” value falls from 11.2% to -70.6%.

Compared with `Clc1ccc(OCCN2CCN(c3ncnc4sccc34)CC2)cc1`, `CN(CC(=O)Nc1ccc(N2CCOCC2)cc1)C(=O)c1cccc(Cl)c1Cl` is higher in “hERG current change (%, negative = inhibition) at 10uM” value: -81.2% for the first, -7.53% for the second.

First: CC(=O)c1cccc(N(C(=O)Cn2nnc3ccccc32)C(C(=O)NCc2ccccc2)c2ccccn2)c1 (centres unmarked)
Second: CC(=O)Oc1oc(-c2ccccc2)nc1C=Nc1ccc(N(C)C)cc1
The “hERG current change (%, negative = inhibition) at 10uM” value of the first is lower: -39% for the first, 14.2% for the second.

For `COc1cc(CCNC(=O)c2cnn3ccccc23)cc(OC)c1OC`, the “hERG current change (%, negative = inhibition) at 10uM” value was 0.701%.
